Test results as given in the supplement of paper PMC12217912.
The other results are listed elsewhere or left out. Sequences were assembled here from the parent chain. Inactive controls read about 0.05.

B1: TEV protease; numbered along this chain (parent)
chain: MGESLFKGPRDYNPISSSICHLTNESDGHTTSLYGIGFGPFIITNKHLFRRNNGTLVVQSLHGVFKVKDTTTLQQHLVDGRDMIIIRMPKDFPPFPQKLKFREPQREERICLVTTNFQTKSMSSMVSDTSCTFPSGDGIFWKHWIQTKDGQCGSPLVSTRDGFIVGIHSASNFTNTNNYFTSVPKNFMELLTNQEAQQWVSGWRLNADSVLWGGHKVFMVKPEEPFQPVKEATQL

Variants of: B1
Test: raw area under fraction-flipped curve 0-4 h after induction (AUC4h, not background-subtracted), DNA-recorder readout of cleavage of the substrate (dimensionless); higher = more cleavage of the substrate by the protease variant
Conditions: temperature: 34 °C; time window: 0-4 h after rhamnose induction
Experimental: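 In vivo DNA recorder in E. coli TOP10(DE3) ΔrhaA at 34 °C. Each TEVp single-site mutant (parent TEVp 0) is paired with a single-site variant of the 7-mer TEVs (canonical ENLYFQ|S). The substrate sits between flexible linkers in a Bxb1-sfGFP-TEVs-SsrA fusion, so cleavage stabilises Bxb1 and speeds flipping of a recombination array, read by NGS. The value is the raw area under the fraction-flipped curve over 0-4 h after rhamnose induction (AUC4h), with ≥20 reads per time point. It is not background-subtracted; inactive controls average about 0.047.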
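Note: Bxb1 expression induced with 0.2% (w/v) L-rhamnose at OD600 near 0.5, cultures sampled hourly, flipped fraction per protease–substrate barcode pair counted by paired-end Illumina sequencing.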

Variant	area with substrate ENAYFQS	area with substrate ENCYFQS	area with substrate ENDYFQS	area with substrate ENEYFQS	area with substrate ENFYFQS	area with substrate ENGYFQS	area with substrate ENHYFQS	area with substrate ENIYFQS	area with substrate ENMYFQS	area with substrate ENNYFQS	area with substrate ENPYFQS	area with substrate ENQYFQS	area with substrate ENRYFQS	area with substrate ENSYFQS	area with substrate ENTYFQS	area with substrate ENVYFQS	area with substrate ENYYFQS	area with substrate ENKYFQS	area with substrate ENWYFQS
H21V	0.0493	0.0607	0.0583	0.0759	0.0558	0.0463	0.0608	0.0994	0.0681	0.072	0.0579	0.0557	0.0616	0.0715	0.0615	0.0625	0.0567		
S18Q	0.0418	0.0633	0.0601	0.0603	0.0642	0.0577			0.0932	0.0751	0.0558		0.044	0.0571	0.0616	0.106			
T31V	0.0645	0.0684		0.0537		0.0538	0.0597	0.102	0.0558	0.0671	0.0578	0.0574	0.0604	0.0661	0.0906	0.0835	0.0631	0.0566	0.0022
C20W	0.0428		0.0338	0.0483	0.0498	0.0386	0.0485		0.0372	0.051	0.0438	0.038		0.0502	0.0453	0.0409	0.0425		0.0427
C20L	0.03	0.0627	0.0589	0.064	0.0525	0.0361	0.0512				0.051	0.0613		0.0659	0.0694	0.0832		0.0535	
Y12C	0.0494	0.0608	0.0765	0.0668	0.0671	0.0553		0.115	0.0798	0.0601	0.0663	0.0629	0.0564	0.0634	0.0717	0.0793		0.0765	0.0576
Y12M	0.0386		0.0614	0.0769	0.0608	0.0629	0.0483	0.0737	0.0584	0.0391		0.0531	0.0623		0.0588	0.0862	0.055		
Y12N	0.0585	0.0832		0.0485	0.0713			0.0655	0.0559			0.0456	0.0454	0.0599	0.0731	0.0722		0.064	
D27S	0.0542	0.0571	0.0606		0.0576	0.0679	0.0596		0.0607	0.06	0.0735		0.0525	0.0596		0.072	0.049	0.0711	
D27G	0.0495	0.0729	0.0599	0.06	0.0684		0.0514	0.076	0.0919			0.0622	0.0602	0.057		0.0697			
L33R	0.0632		0.0564	0.0622	0.0668	0.0645	0.0648	0.053	0.0527		0.0493	0.0588	0.0462	0.0506	0.0488	0.0566	0.0524	0.0605	
L33Y	0.0511	0.0657	0.0614	0.0637		0.0592				0.0653		0.0638	0.0701	0.063		0.0608	0.0591		
L33H	0.0499	0.0513	0.0599	0.0584	0.057	0.0556					0.0579	0.0617	0.0638	0.0686	0.0543	0.0595	0.0591	0.063	
R10W	0.0637	0.0756	0.0591	0.0538	0.0616	0.0605	0.0564	0.148			0.0615	0.0569	0.0649	0.0664		0.0853		0.0653	0.046
R10D	0.0603	0.0603	0.0732	0.0487	0.0718	0.0689	0.0702	0.105		0.0639	0.0613	0.0547	0.0613	0.0603	0.057	0.0824	0.0569	0.0543	0.0045
H29P	0.0677	0.063	0.0552	0.0576	0.0594					0.0623	0.0643	0.0457	0.0508	0.062		0.0577		0.057	
H29M	0.057	0.0682	0.0662	0.0533	0.0561		0.0546		0.0856	0.0629	0.0678	0.0559	0.0602			0.0776	0.0561		
H29T	0.0621	0.0756	0.0557		0.0751		0.029		0.0966	0.0528		0.067		0.0773	0.0595	0.0806		0.0582	
H29I	0.0592	0.0689		0.0532				0.129		0.0562		0.0636		0.0657	0.054		0.0597	0.055	0.0593
E3F	0.0605		0.0578	0.0713	0.0773	0.0476	0.0562	0.147	0.0966	0.0546	0.0776	0.0682	0.0525	0.068	0.106	0.101			
S26Q	0.0725	0.081	0.0531	0.05	0.055	0.0636	0.0676	0.0842	0.0661	0.0602	0.0614	0.0714	0.0521	0.074	0.0611	0.0693	0.074	0.0577	0.0569
S26R	0.0527		0.0618	0.0519	0.0824	0.062	0.0629	0.0865	0.0687	0.0466	0.0517	0.0573	0.072	0.0589	0.0665	0.0592		0.0505	
I15P	0.0577		0.0631	0.0488	0.0563	0.0444	0.0569			0.053	0.0544	0.0626	0.0443	0.0584	0.045			0.0749	0.062
G28Q	0.0611	0.0715	0.0591	0.0617			0.0536		0.092	0.0592		0.0579	0.0687	0.053		0.0915	0.0561		
L5P	0.062		0.0644					0.0501			0.0496	0.0616							
